In the supplement of paper PMC10126150:
Sequences with one replicate were seen in a single cluster, so their values are uncertain.
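Further: ATP exposure 15 min at 22 °C before imaging.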

The sequences below were run on ATP (assay: switch fluorescence ratio, 500 uM ATP over buffer (Cy3 cluster intensity, sum of 5 cycles each) (fold (ratio)); higher = stronger signal-on switching upon ATP binding; sequences stand for … in TCGTCGGCAGCGTCAGATGTGTATAAGAGACAGTTTTTTTTTTTTTTTTTTTTTTTTT…TC). Settings: aptamer strand: ATP DNA aptamer (quencher-CACCTGGGGGAGTATTGCGGAGGAAGG + anchor), 100 nM annealed; ATP concentration: 500 uM; one replicate.
Summary of the method: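 For every switch-domain sequence, the fluorescence ratio is the mean of per-cluster values, each being summed target-cycle Cy3 intensity over summed buffer-cycle Cy3 intensity. Clusters outside 100-1000 RFU were excluded. On a modified Illumina MiSeq flow-cell, the Cy3-labelled switching-strand clusters were annealed to 100 nM quencher-labelled ATP aptamer, imaged in selection buffer and then after 15 min with 500 uM ATP at 22 °C. Five such cycles were run, with NaOH stripping and re-annealing between them.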
For TGCCGTGGTT, the switch fluorescence ratio was 0.962.
TGCCTAGTTA showed a switch fluorescence ratio of 0.983.
Sequence TGCCTCAAGA has a switch fluorescence ratio of 1.25.
TGCCTCAATC gave a switch fluorescence ratio of 1.37.
Work on TGCCTCATAA yielded a switch fluorescence ratio of 1.
For TGCCTTAAAC, the switch fluorescence ratio was 1.14.
Work on TGCGACCGGA yielded a switch fluorescence ratio of 1.02.
In the case of TGCGACGGGG, the switch fluorescence ratio is reported as 0.962.
Work on TGCGAGAG yielded a switch fluorescence ratio of 1.01.
TGCGAGATGC was tested, and the switch fluorescence ratio was 1.05.
In the case of TGCGCATATA, the switch fluorescence ratio is reported as 1.23.
TGCGCATCCC gave a switch fluorescence ratio of 1.2.
In the case of TGCGCGAATT, the switch fluorescence ratio is reported as 1.
With TGCGCTGAGC the switch fluorescence ratio was 1.05.
Sequence TGCGCTGTCT has a switch fluorescence ratio of 1.02.
With TGCGGAGGAA the switch fluorescence ratio was 1.07.
In the case of TGCGGATGTG, the switch fluorescence ratio is reported as 0.992.
TGCGGGTAGA was tested, and the switch fluorescence ratio was 1.03.
For TGCGGGTCG, the switch fluorescence ratio was 1.04.
Work on TGCGGTACAA yielded a switch fluorescence ratio of 1.03.
Work on TGCGGTCACG yielded a switch fluorescence ratio of 0.997.
TGCGGTTAG gave a switch fluorescence ratio of 0.944.
For TGCGTATGAC, the switch fluorescence ratio was 0.981.
For TGCGTCTGCC, the switch fluorescence ratio was 1.
For TGCGTGCACG, the switch fluorescence ratio was 0.974.
With TGCGTGCGGA the switch fluorescence ratio was 1.02.
Work on TGCGTGCTGA yielded a switch fluorescence ratio of 0.963.
Work on TGCGTGCTTG yielded a switch fluorescence ratio of 0.994.
Work on TGCGTGGACT yielded a switch fluorescence ratio of 1.26.
TGCGTGGAGT showed a switch fluorescence ratio of 1.
TGCGTTGGG showed a switch fluorescence ratio of 1.03.
TGCGTTGGGT was tested, and the switch fluorescence ratio was 0.986.
With TGCTACAATA the switch fluorescence ratio was 1.06.
TGCTACCGTT showed a switch fluorescence ratio of 0.973.
TGCTAGAAAC showed a switch fluorescence ratio of 0.969.
For TGCTAGACAA, the switch fluorescence ratio was 1.02.
TGCTAGCCAC was tested, and the switch fluorescence ratio was 1.04.
TGCTAGCGGC was tested, and the switch fluorescence ratio was 0.986.
In the case of TGCTAGGCTG, the switch fluorescence ratio is reported as 1.01.
With TGCTATTAGC the switch fluorescence ratio was 1.01.
TGCTATTCTG was tested, and the switch fluorescence ratio was 0.904.
TGCTATTCTT gave a switch fluorescence ratio of 0.993.
Work on TGCTCATGTT yielded a switch fluorescence ratio of 1.03.
TGCTCCTATT gave a switch fluorescence ratio of 1.03.
With TGCTCGCCTT the switch fluorescence ratio was 0.991.
In the case of TGCTCGTCAT, the switch fluorescence ratio is reported as 0.966.
Work on TGCTGAAAC yielded a switch fluorescence ratio of 0.991.
TGCTGAGGTG was tested, and the switch fluorescence ratio was 1.02.
TGCTGCCGGA showed a switch fluorescence ratio of 1.02.
In the case of TGCTGCGATC, the switch fluorescence ratio is reported as 1.64.
With TGCTGCGCGG the switch fluorescence ratio was 1.06.
TGCTGCTTCT gave a switch fluorescence ratio of 0.971.
With TGCTGTGTGT the switch fluorescence ratio was 0.984.
TGCTGTGTTA was tested, and the switch fluorescence ratio was 0.995.
Sequence TGCTGTTTTG has a switch fluorescence ratio of 0.97.
TGCTTAAGGG gave a switch fluorescence ratio of 0.978.
TGCTTAATAT showed a switch fluorescence ratio of 0.989.
In the case of TGCTTAGAGC, the switch fluorescence ratio is reported as 0.983.
Sequence TGCTTGTAGC has a switch fluorescence ratio of 1.05.
In the case of TGCTTTCCTG, the switch fluorescence ratio is reported as 1.01.
TGCTTTCGTT was tested, and the switch fluorescence ratio was 0.983.
TGGAAAACCA showed a switch fluorescence ratio of 0.997.
TGGAAATCAC gave a switch fluorescence ratio of 1.05.
TGGAAGCCAT was tested, and the switch fluorescence ratio was 0.996.
For TGGAAGGGAA, the switch fluorescence ratio was 0.968.
TGGAATGTGA was tested, and the switch fluorescence ratio was 1.05.
Sequence TGGACCAAGC has a switch fluorescence ratio of 0.963.
TGGACGTTTT was tested, and the switch fluorescence ratio was 0.994.
With TGGACTAGGT the switch fluorescence ratio was 0.978.
TGGACTTGGC showed a switch fluorescence ratio of 0.959.
With TGGAGAACGT the switch fluorescence ratio was 1.
Sequence TGGAGAATG has a switch fluorescence ratio of 1.01.
With TGGAGCAAGT the switch fluorescence ratio was 4.06.
TGGAGCTTG gave a switch fluorescence ratio of 1.03.
TGGAGGAGTA gave a switch fluorescence ratio of 0.978.
TGGAGGGACA gave a switch fluorescence ratio of 1.01.
TGGAGGGGG gave a switch fluorescence ratio of 1.02.
Work on TGGAGTTGGG yielded a switch fluorescence ratio of 0.971.
Work on TGGATACAAG yielded a switch fluorescence ratio of 0.988.
TGGATACGAG gave a switch fluorescence ratio of 1.03.
TGGATACTCC showed a switch fluorescence ratio of 1.5.
With TGGATAGCCA the switch fluorescence ratio was 1.04.
In the case of TGGATAGCG, the switch fluorescence ratio is reported as 1.04.
In the case of TGGATAGGGC, the switch fluorescence ratio is reported as 1.04.
Sequence TGGATATTAA has a switch fluorescence ratio of 0.976.
TGGATGAGGA showed a switch fluorescence ratio of 0.931.
Work on TGGATGGCAT yielded a switch fluorescence ratio of 1.02.
TGGATGTAGA showed a switch fluorescence ratio of 1.03.
For TGGATGTCGA, the switch fluorescence ratio was 0.974.
TGGATTGGAA was tested, and the switch fluorescence ratio was 0.997.
TGGATTGGAC was tested, and the switch fluorescence ratio was 0.985.
Sequence TGGATTTGGC has a switch fluorescence ratio of 1.03.
TGGCACCGTG gave a switch fluorescence ratio of 0.981.
In the case of TGGCACGTCC, the switch fluorescence ratio is reported as 1.02.
TGGCACTCCG gave a switch fluorescence ratio of 1.03.
In the case of TGGCACTGT, the switch fluorescence ratio is reported as 1.03.
With TGGCAGTAGT the switch fluorescence ratio was 1.03.
Work on TGGCCAACCG yielded a switch fluorescence ratio of 1.04.
For TGGCCACCGG, the switch fluorescence ratio was 1.01.
Work on TGGCCAGCGG yielded a switch fluorescence ratio of 1.01.
TGGCCCACCA was tested, and the switch fluorescence ratio was 1.
Work on TGGCCCCCAT yielded a switch fluorescence ratio of 1.11.
Sequence TGGCCGAGGG has a switch fluorescence ratio of 0.991.
TGGCCGGAAA gave a switch fluorescence ratio of 1.07.
TGGCCGGAAG was tested, and the switch fluorescence ratio was 0.965.
TGGCCGGAGG showed a switch fluorescence ratio of 0.989.
TGGCGAAAAG showed a switch fluorescence ratio of 1.02.
TGGCGACATT showed a switch fluorescence ratio of 0.97.
In the case of TGGCGATCAA, the switch fluorescence ratio is reported as 1.01.
TGGCGATTGA gave a switch fluorescence ratio of 0.966.
For TGGCGCGCGG, the switch fluorescence ratio was 1.02.
In the case of TGGCGGAAAT, the switch fluorescence ratio is reported as 1.01.
With TGGCGGACTG the switch fluorescence ratio was 1.22.
With TGGCGGGAGA the switch fluorescence ratio was 1.05.
Sequence TGGCGTAGAG has a switch fluorescence ratio of 1.01.
TGGCGTCTAA was tested, and the switch fluorescence ratio was 0.969.
TGGCGTGAGG was tested, and the switch fluorescence ratio was 0.97.
TGGCGTGGCT was tested, and the switch fluorescence ratio was 1.03.
TGGCTAACTG was tested, and the switch fluorescence ratio was 0.973.
Work on TGGCTATCAA yielded a switch fluorescence ratio of 1.
With TGGCTCACAT the switch fluorescence ratio was 1.04.
In the case of TGGCTCGCGA, the switch fluorescence ratio is reported as 1.09.
Sequence TGGCTGCGAA has a switch fluorescence ratio of 1.04.
With TGGCTGGCGA the switch fluorescence ratio was 1.04.
Sequence TGGCTGGTT has a switch fluorescence ratio of 0.952.
TGGCTGTCCG gave a switch fluorescence ratio of 0.957.
With TGGCTTCTGA the switch fluorescence ratio was 1.02.
TGGCTTGACC was tested, and the switch fluorescence ratio was 1.
TGGCTTTCGG gave a switch fluorescence ratio of 1.01.
TGGGAATTAC showed a switch fluorescence ratio of 1.05.
For TGGGACAAAA, the switch fluorescence ratio was 1.
TGGGACGAAG gave a switch fluorescence ratio of 0.957.
TGGGACGTTC gave a switch fluorescence ratio of 1.1.
TGGGACTCAC showed a switch fluorescence ratio of 1.13.
TGGGAGACA gave a switch fluorescence ratio of 1.05.
Sequence TGGGAGACTA has a switch fluorescence ratio of 1.02.
TGGGAGCATT was tested, and the switch fluorescence ratio was 1.03.
Work on TGGGAGGCGC yielded a switch fluorescence ratio of 0.983.
Sequence TGGGATCCTC has a switch fluorescence ratio of 1.07.
TGGGATTATA gave a switch fluorescence ratio of 0.972.
Work on TGGGATTTG yielded a switch fluorescence ratio of 0.977.
Work on TGGGCCAGGT yielded a switch fluorescence ratio of 1.5.
In the case of TGGGCTGAGT, the switch fluorescence ratio is reported as 1.01.
In the case of TGGGCTTAGG, the switch fluorescence ratio is reported as 0.995.
For TGGGGACATA, the switch fluorescence ratio was 1.01.
With TGGGGAGAGT the switch fluorescence ratio was 0.998.
TGGGGAGCGA gave a switch fluorescence ratio of 0.981.
For TGGGGAGCTA, the switch fluorescence ratio was 1.07.
TGGGGAGGA gave a switch fluorescence ratio of 1.03.
TGGGGCAGCT gave a switch fluorescence ratio of 0.98.
With TGGGGCGGCC the switch fluorescence ratio was 0.99.
Work on TGGGGGCGAT yielded a switch fluorescence ratio of 1.57.
TGGGGGCTCG was tested, and the switch fluorescence ratio was 0.953.
